{"source": "PubChem BioAssay AID1030", "about": "(National Center for Advancing Translational Sciences (NCATS), 2008)", "note": "About 16,000 (7.3%) of roughly 220,000 compounds were called active. The shares of active, inactive and inconclusive entries below differ from those in the screen. Calls follow the shape of the dose curve; as a rule, active = well fitted inhibition curve with a large enough effect (not every such curve was filed as active); inconclusive = small, poorly fitted or top-dose-only effect, or another doubt; inactive = no such curve, though single readings can be large or run the other way. Potencies of inconclusive entries are left out as doubtful fits. Potency is read from the fitted curve at half-maximal effect; tags tell the direction and shape of the fitted curve."}
{"target": "Aldehyde dehydrogenase 1A1 (Homo sapiens) (UniProt P00352)", "sequence (P00352 whole entry, looked up)": "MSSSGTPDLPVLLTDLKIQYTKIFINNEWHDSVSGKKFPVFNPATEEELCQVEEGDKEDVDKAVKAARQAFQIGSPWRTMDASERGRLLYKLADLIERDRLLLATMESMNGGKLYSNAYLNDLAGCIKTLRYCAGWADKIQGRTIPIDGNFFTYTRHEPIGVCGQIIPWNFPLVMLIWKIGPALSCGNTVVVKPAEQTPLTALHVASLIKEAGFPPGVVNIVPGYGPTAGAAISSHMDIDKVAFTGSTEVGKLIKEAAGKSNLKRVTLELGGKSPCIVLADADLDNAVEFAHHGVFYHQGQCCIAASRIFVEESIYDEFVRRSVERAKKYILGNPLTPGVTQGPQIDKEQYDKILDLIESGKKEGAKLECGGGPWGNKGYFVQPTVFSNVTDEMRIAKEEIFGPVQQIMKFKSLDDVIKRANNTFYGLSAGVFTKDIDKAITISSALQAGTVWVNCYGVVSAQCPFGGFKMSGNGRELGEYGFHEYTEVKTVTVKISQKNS", "experiment": "qHTS Assay for Inhibitors of Aldehyde Dehydrogenase 1 (ALDH1A1);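 as to activity, negative = inhibition: plate controls were no enzyme wells and a reference inhibitor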", "conditions": "Purified ALDH1A1, NADH fluorescence, propionaldehyde substrate; series mostly up to 75.3 µM"}
{"molecule": "O=C(Nc1ccc2oc(-c3ccccc3)nc2c1)c1ccncc1", "Potency": "inconclusive [inhibitor, single point]"}
{"molecule": "COc1ccc(CNC(=S)N/N=C/c2ccncc2)cc1", "Potency": "inconclusive [inhibitor, single point]"}
{"molecule": "CCc1ccc(N2CC(C)Cn3c2nc2c3c(=O)n(CCN3CCOCC3)c(=O)n2C)cc1", "note": "(configuration not stated)", "Potency": "inconclusive [inhibitor, full curve]"}
{"molecule": "CCCn1nc2cc(C(=O)NC3CCCc4ccccc43)ccc2c1OCC", "note": "(configuration not stated)", "Potency": "inconclusive [inhibitor, single point]"}
{"molecule": "CCCCC(=O)N1CCCC(C(=O)OCC)C1", "note": "(configuration not stated)", "Potency": "inactive"}
{"molecule": "Cc1ccc(NS(=O)(=O)c2ccc(C(=O)NCC3CCCO3)cc2)cc1", "note": "(configuration not stated)", "Potency": "inactive"}
{"molecule": "O=C(Nc1ccccc1)Nc1nnc(CSCc2ccccc2Cl)s1", "Potency": "inactive"}
{"molecule": "CC(C)Cc1nnc(NC(=O)Cc2ccccc2[N+](=O)[O-])s1", "Potency": "inconclusive [inhibitor, single point]"}
{"molecule": "CN(C)C(=O)c1ccccc1Sc1ccc(Cl)cc1Cl", "Potency": "inconclusive [inhibitor, single point]"}
{"molecule": "CCN(CC)CCn1c(-c2ccccc2)nc2c(NCc3ccccc3)nc(C)nc21", "Potency": "inconclusive [inhibitor, single point]"}
{"molecule": "c1ccc(-c2nc(Sc3ncnc4c3cnn4-c3ccccc3)n[nH]2)cc1", "Potency": "inactive"}
{"molecule": "COc1ccc2c(c1)-c1nc(NC(=O)c3cccs3)sc1CC2", "Potency": "inconclusive [inhibitor, single point]"}
{"molecule": "O=C(CSc1n[nH]c(-c2ccc(S(=O)(=O)N3CCCCC3)cc2)n1)Nc1nccs1", "Potency": "inconclusive [inhibitor, partial curve]"}
{"molecule": "C/C(=N\\NC(=O)C1CC1c1ccccc1)c1cccc([N+](=O)[O-])c1", "note": "(configuration not stated)", "Potency": "inactive"}
{"molecule": "CCN(CC)C(=O)C(=O)N/N=C/c1cccc(Br)c1", "Potency": "inactive"}
{"molecule": "CCOC(=O)c1[nH]c2ccccc2c1NC(=S)Nc1cccc(C)c1C", "Potency": "inconclusive [inhibitor, single point]"}
{"molecule": "CC(=O)CSc1nnc(NC(=O)CCc2ccccc2)s1", "Potency": "inconclusive [inhibitor, single point]"}
{"molecule": "COc1ccc(NC(=O)C(CC(=O)O)C(C)c2ccccc2)cc1", "note": "(configuration not stated)", "Potency": "inactive"}
{"molecule": "Cc1ccc2nc(-c3ccccn3)cc(C(=O)Nc3ccc(S(=O)(=O)N4CCOCC4)cc3)c2c1", "Potency": "inconclusive [inhibitor, single point]"}
{"molecule": "COc1ccc(Cn2nnc3c(=O)[nH]c(C(=O)NCCc4ccc(F)cc4)nc32)cc1OC", "Potency": "inactive"}
{"molecule": "O=C(Nc1cccc(Cl)c1)Nc1nnc(CSCCOc2ccc(Cl)cc2)s1", "Potency": "inactive"}
{"molecule": "O=C(c1cccc(F)c1)N1CCCN(C(=O)c2cccc(F)c2)CC1", "Potency": "inactive"}
{"molecule": "O=C(O)/C=C\\C(=O)Nc1ccc(Oc2ccccc2)cc1", "Potency": "active: 11.2 µM"}
{"molecule": "c1coc(Cn2c(SCc3nc4ccccc4[nH]3)nnc2-c2cccs2)c1", "Potency": "inconclusive [inhibitor, single point]"}
{"molecule": "COc1ccccc1N1CCN(C(=O)CCCCCn2c(=O)[nH]c3ccsc3c2=O)CC1", "Potency": "inactive"}
{"molecule": "O=C(CCC(=O)NC1CC1)Nc1nnc(C2CCCCC2)s1", "Potency": "inconclusive [inhibitor, single point]"}
{"molecule": "COC(=O)c1ccc2c(=O)n(CCCCCC(=O)O)c(=S)[nH]c2c1", "Potency": "active: 14.1 µM"}
{"molecule": "O=C(NC1CC2CCC(C1)N2C(=O)NCc1ccccc1)NC12CC3CC(CC(C3)C1)C2", "note": "(configuration not stated)", "Potency": "inactive"}
{"molecule": "CC(=O)N1N=C(c2cccc(NS(C)(=O)=O)c2)CC1c1cccs1", "note": "(configuration not stated)", "Potency": "inconclusive [inhibitor, single point]"}
{"molecule": "COc1cccc(/C=C2\\SC(=S)N(N3C(=O)CCCC3=O)C2=O)c1", "Potency": "inconclusive [inhibitor, single point]"}
{"molecule": "NC(=S)N/N=C/c1ccc(-c2cc(Cl)cc(Cl)c2)o1", "Potency": "inconclusive [inhibitor, single point]"}
{"molecule": "Cn1nc(-c2ccc(Cl)cc2)c2cc(C(=O)N3CCN(c4ccccn4)CC3)sc21", "Potency": "inconclusive [inhibitor, single point]"}
{"molecule": "CCC(C)(C)NC(=O)C(c1ccccn1)N(C(=O)c1csnn1)c1ccc(C)cc1", "note": "(configuration not stated)", "Potency": "inconclusive [inhibitor, single point]"}
{"molecule": "COc1ccc(C2CC(=O)Oc3cc(C)c(Cl)c(C)c32)cc1", "note": "(configuration not stated)", "Potency": "inconclusive [inhibitor, full curve]"}
{"molecule": "O=C(CC(Nc1ccccc1Cl)C(=O)O)c1ccccc1", "note": "(configuration not stated)", "Potency": "active: 0.126 µM"}
{"molecule": "Cc1cc(NC(=O)CSc2ccc3nnc(-c4cccc(F)c4)n3n2)no1", "Potency": "inconclusive [inhibitor, single point]"}
{"molecule": "COc1ccccc1CN1C(=O)[C@@H]2C(CCC(N)=O)NC3(C(=O)Nc4c3ccc(Cl)c4C)[C@@H]2C1=O", "note": "(some centres not stated)", "Potency": "active: 0.224 µM"}
{"molecule": "COc1ccccc1CNC(=O)c1ccoc1C", "Potency": "inconclusive [inhibitor, single point]"}
{"molecule": "CCOc1ncccc1C(=O)OCC(=O)Nc1ncc(C(F)(F)F)cc1Cl", "Potency": "inactive"}
{"molecule": "CCc1ccc(NC(=S)NC(=O)CC(C)C)cc1", "Potency": "inactive"}
{"molecule": "CCOC(=O)N1CCN(c2c(NCCCN(C)c3ccccc3)c(=O)c2=O)CC1", "Potency": "inconclusive [inhibitor, single point]"}
{"molecule": "O=C(CCN1C(=O)c2ccccc2C1=O)N1CCN(C(=O)c2ccccc2)CC1", "Potency": "inconclusive [inhibitor, partial curve]"}
{"molecule": "COC(=O)[C@H](Cc1ccccc1)NC(=O)O[C@@H]1C(=O)c2cc(OC)ccc2O[C@H]1c1cccc(OC)c1", "Potency": "active: 20 µM"}
{"molecule": "CCOC(=O)OC(C)OC(=O)C1N2C(=O)C(NC(=O)C(N)c3ccccc3)C2SC1(C)C", "note": "(configuration not stated)", "Potency": "inactive"}
{"molecule": "O=C1OC(Nc2ccc(F)cc2F)c2ccccc21", "note": "(configuration not stated)", "Potency": "inactive"}
{"molecule": "COCCNC(=O)c1ccc2ccccc2n1", "Potency": "inconclusive [inhibitor, single point]"}
{"molecule": "O=C(O)CCSc1nc2ccccc2s1", "Potency": "active: 25.1 µM"}
{"molecule": "CO[C@H]1COC(=O)[C@@H](Cc2ccccc2)NC(=O)[C@@H](C)COC(=O)CCC[C@@H]1C", "activity, negative = inhibition": "inactive: 6.09% [at 13.5 µM]"}
{"molecule": "COc1cc(OC)c2cc(-c3ccncc3)cnc2c1", "Potency": "inconclusive [inhibitor, partial curve]"}
{"molecule": "Cc1cn(C2OC(COC(=O)c3ccccc3)C(OC(=O)c3ccccc3)C2OC(=O)c2ccccc2)c(=O)[nH]c1=O", "note": "(configuration not stated)", "Potency": "inactive"}
{"molecule": "COc1ccc(Br)cc1/C=N/NC(=O)c1ccco1", "Potency": "inactive"}
{"molecule": "O=C(O)c1ccc(OC2CSC2)cc1", "Potency": "inconclusive [inhibitor, partial curve]"}
{"molecule": "Cc1c(O)ccc(/C=N/Nc2nc(-c3cccnc3)nc3ccccc23)c1O", "Potency": "inactive"}
{"molecule": "Cc1ccccc1-c1n[nH]c(=S)n1/N=C/c1ccc(-c2ccccc2Br)o1", "Potency": "active: 14.1 µM"}
{"molecule": "CCCC1=C(C(=O)OCC)C(c2cccs2)C(C#N)=C(N)O1", "note": "(configuration not stated)", "Potency": "inconclusive [inhibitor, single point]"}
{"molecule": "CC(=O)c1ccc(NC(=S)NCC(c2ccco2)N2CCCC2)cc1", "note": "(configuration not stated)", "Potency": "inconclusive [inhibitor, single point]"}
{"molecule": "O=C(c1ccc2c(c1)N(Cc1ccc(F)cc1)C(=O)c1ccccc1S2(=O)=O)N1CCN(c2ccccn2)CC1", "Potency": "inconclusive [inhibitor, single point]"}
{"molecule": "CSc1n[nH]c(NC2=CC(=O)CCC2)n1", "Potency": "inconclusive [inhibitor, single point]"}
{"molecule": "O=C(NC1CCCC1)C1(c2ccccc2)CCN(S(=O)(=O)c2ccccc2)CC1", "Potency": "inconclusive [inhibitor, single point]"}
{"molecule": "COc1ccccc1-c1nnc2sc(COc3ccc(Cl)cc3Cl)nn12", "Potency": "inactive"}
{"molecule": "Cc1nn2c3ccccc3n(CCN3CCCCC3)c2nc1=O", "Potency": "inconclusive [inhibitor, single point]"}
{"molecule": "O=c1cc(-c2ccccc2)[nH]n1-c1ccc([N+](=O)[O-])cc1", "Potency": "inactive"}
{"molecule": "CC1=C(C(=O)Nc2ccccc2)C(c2ccncc2)C(C#N)=C(SCC(=O)Nc2ccccc2)N1", "note": "(configuration not stated)", "Potency": "inconclusive [inhibitor, single point]"}
{"molecule": "CC(=O)Nc1ccc(NC(=O)CCC(=O)OCC(=O)c2ccc(C)c([N+](=O)[O-])c2)cc1", "Potency": "inconclusive [inhibitor, single point]"}
{"molecule": "C#CCOCCOCCOCCNc1nc(N2CCN(C(=O)[C@H]([C@@H](C)CC)n3cc([C@@H](N)CC(C)C)nn3)CC2)nc(N2CCN(C(=O)[C@H](CCCCN)n3cc([C@@H](N)C(C)CC)nn3)CC2)n1", "note": "(some centres not stated)", "Potency": "inactive"}
{"molecule": "O=C(c1ccncc1)N1CCC[C@@]2(CCN(Cc3ccncc3)C2)C1", "Potency": "active: 22.4 µM"}
{"molecule": "COc1ccc(NC(=S)Nc2cccc(C(C)=O)c2)cc1OC", "Potency": "inconclusive [inhibitor, single point]"}
{"molecule": "COc1cc(NC(=O)CSc2nc3[nH]ncc3c(=O)n2-c2ccccc2C)cc(OC)c1OC", "Potency": "inconclusive [inhibitor, single point]"}
{"molecule": "O=c1cc(CSc2nc3ccccc3c(=O)[nH]2)c2ccc(O)cc2o1", "Potency": "inconclusive [inhibitor, single point]"}
{"molecule": "Cc1ccc(/C=C/C(=O)O)cc1S(=O)(=O)NCc1ccco1", "Potency": "inconclusive [inhibitor, single point]"}
{"molecule": "COc1ccccc1N1C(=O)CC(Sc2n[nH]c(-c3cccc(C)c3)n2)C1=O", "note": "(configuration not stated)", "Potency": "active: 2 µM"}
{"molecule": "N#Cc1c(NC(=O)C2CCCO2)sc2c1CCCCC2", "note": "(configuration not stated)", "Potency": "inconclusive [inhibitor, partial curve]"}
